Assay [1] concerns the target T1, Human CD44 iso6-Fc (human, UniProt P16070-6 21-606, limits assumed, chemically biotinylated in the form called Bio-CD44).
T1 construct: Negative control antigen, ProMab, HKB11 cells; also called Bio-CD44; bio-CD44
The assay is described as follows: SPR SCK, antibody immobilised, CD44-Fc injected. The protocol: (§1) The SPR measurements were performed on a BIAcore T200 instrument (Cytiva) using a SCK approach. Each antibody was directly immobilized onto a separate surface of a CM5 series S sensor chip using EDC/NHS amine coupling chemistry according to manufacturer's recommendations. Immobilization levels were set to 1500 RU. All experiments were performed at 25° C. in running buffer (HBS, 0.05% Tween20, pH 7.5). A three-fold dilution series of CD44v6 and negative control CD44, comprised of five concentrations ranging between 10-0.12 nM, were prepared in running buffer. A four-fold dilution series of human, cynomolgus and rabbit v6-peptide, respectively, comprised of five concentrations ranging between 100-0.39 nM, were also prepared in running buffer. Each dilution series were sequentially injected, starting with the lowest concentration first, over an immobilized antibody clone and chip surfaces were regenerated with 10 mM glycin-HCl, pH 2.1. See table 10 for specifications of antigens used in SPR measurements. By subtracting the response curve of a reference surface (an activated and deactivated chip surface) and to a blank run (running buffer injected instead of antigen) response curve sensorgrams were obtained. Data was analyzed using the Biacore T200 Evaluation 3.1 software and a 1:1 Langmuir binding model.

The target in assay [2] is T2, Human v6-peptide (human, N-terminal biotin).
T2 construct: Bachem #4108947, 43 amino acids, synthetic; also called Hm v6-peptide; hm v6-peptide
T2 peptide: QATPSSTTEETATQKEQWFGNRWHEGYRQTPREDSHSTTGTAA
The assay is described as follows: SPR SCK, antibody immobilised, peptide injected. The protocol: as §1

In assay [3] the target is T3, Cynomolgus v6-peptide (cynomolgus, UniProt A0A2K5VJE0 387-429, N-terminal biotin).
T3 construct: domain: v6-region (43 amino acids); also called Cm v6-peptide; cm v6-peptide
T3 peptide: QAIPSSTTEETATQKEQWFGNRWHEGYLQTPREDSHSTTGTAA
Nature of the assay: SPR SCK, antibody immobilised, peptide injected. The protocol: as §1

Assay [4] concerns the target T4, Human CD44v6 iso4-Fc (human, UniProt P16070-4 21-606, limits assumed, chemically biotinylated in the form called Bio-CD44v6).
T4 construct: Custom ordered from ProMab, produced in HKB11 cells; The biotinylated and the plain form are kept as one molecule; also called Bio-CD44v6; bio-CD44v6
The assay is described as follows: SPR SCK, antibody immobilised, CD44v6-Fc injected. How it is done:
as §1

Assay [5] concerns the target T4, Human CD44v6 iso4-Fc. The assay is described as follows: SPR SCK, antibody immobilised, CD44v6-Fc injected; apparent KD. How it is done: as §1

The values below come from patent US20250340662A1 (AKIRAM THERAPEUTICS, published 2025).

T4 sequence (P16070 other isoform, or with tags, fused parts or gaps limits assumed): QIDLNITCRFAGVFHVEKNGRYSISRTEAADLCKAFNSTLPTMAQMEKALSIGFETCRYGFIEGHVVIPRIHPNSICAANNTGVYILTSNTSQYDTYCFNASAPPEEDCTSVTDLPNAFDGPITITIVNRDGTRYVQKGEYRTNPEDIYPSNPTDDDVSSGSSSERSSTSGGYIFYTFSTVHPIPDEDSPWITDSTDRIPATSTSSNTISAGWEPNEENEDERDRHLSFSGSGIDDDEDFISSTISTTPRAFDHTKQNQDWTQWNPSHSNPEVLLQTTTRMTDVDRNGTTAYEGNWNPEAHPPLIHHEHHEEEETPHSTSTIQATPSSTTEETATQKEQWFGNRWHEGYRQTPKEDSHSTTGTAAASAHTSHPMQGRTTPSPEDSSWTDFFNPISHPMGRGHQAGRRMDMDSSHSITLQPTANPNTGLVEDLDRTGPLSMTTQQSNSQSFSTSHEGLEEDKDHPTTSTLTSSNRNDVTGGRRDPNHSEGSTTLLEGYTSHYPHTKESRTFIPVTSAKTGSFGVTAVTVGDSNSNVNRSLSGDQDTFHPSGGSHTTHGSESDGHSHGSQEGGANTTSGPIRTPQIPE

B1: AL-MN114-465 IgG1 LALA (antibody)
VH: EVQLLESGGGLVQPGGSLRLSCAASGFSFGSYAMSWVRQAPGKGLEWVSAISAGGSSTFYADSVKGRFTISRDNSKNTLYLQMNSLRAEDTAVYYCARHYYSDSDYRSSAAMDYWGQGTLVTVSS[in this place human IgG1 constant region with changes]
VL: DIQMTQSPSSLSASVGDRVTITCRASQSISSYLNWYQQKPGKAPKLLIYTASSLQSGVPSRFSGSGSGTDFTLTISSLQPEDFATYYCQQDLYLLTFGQGTKLEIKRTVAAPSVFIFPPSDEQLKSGTASVVCLLNNFYPREAKVQWKVDNALQSGNSQESVTEQDSKDSTYSLSSTLTLSKADYEKHKVYACEVTHQGLSSPVTKSFNRGEC
notes: item 20 i) gives heavy 75 / light 94 without naming the format
As for B1, the binding result in assay [1] is “no binding (tested: 10 nM highest CD44 concentration)”. Besides, the Kd in assay [2] was determined as 8.6 nM; in assay [3], 6.2 nM; in assay [5] it was 0.077 nM. In addition, the values for the koff in assay [2], in assay [3] and in assay [4] were 0.008 s⁻¹, 0.0062 s⁻¹ and 0.0001 s⁻¹, respectively. Also, the kon in assay [2] stood at 930000 M⁻¹ s⁻¹; in assay [3] it was 990000 M⁻¹ s⁻¹; in assay [4], 1.3e+06 M⁻¹ s⁻¹.

By koff is commonly meant the first-order rate constant of dissociation. High values mean fast dissociation, low ones slow dissociation. The term kon denotes a measure of how fast the partners come together. Higher therefore signals faster complex formation.
